Measured values taken from PubChem BioAssay AID1745853 (National Center for Advancing Translational Sciences (NCATS), 2022).
Some of the results follow. These are further read-outs of the screen, such as a control signal, another cell line or another target. No call is given for them.

Experiments:
Experiment in all cases: Primary Screen for Target Class Profiling of Small Molecule Inhibitors of Methyltransferases
[1] = target: Glycine N-methyltransferase (Homo sapiens) (UniProt Q14749); conditions: purified enzyme, MTase-Glo SAH luminescence; measured here: GNMT inhibition; at 40 µM; stronger effect = lower value
Summary of the method: (§1)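 Each enzyme was assayed with SAM and its substrate. SAH formation detected by MTase-Glo luminescence; single-point 40 uM screen[…].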

[2] = target: Guanidinoacetate N-methyltransferase (Homo sapiens) (UniProt Q14353); conditions: purified enzyme, MTase-Glo SAH luminescence; measured here: GAMT inhibition; at 40 µM; stronger effect = lower value
Summary of the method: as §1

[3] = target: Histamine N-methyltransferase (Homo sapiens) (UniProt P50135); conditions: purified enzyme, MTase-Glo SAH luminescence; measured here: HNMT inhibition; at 40 µM; stronger effect = lower value
Summary of the method: as §1

[4] = target: Nicotinamide N-methyltransferase (Homo sapiens) (UniProt P40261); conditions: purified enzyme, MTase-Glo SAH luminescence; measured here: NNMT inhibition; at 40 µM; stronger effect = lower value
Summary of the method: as §1

[5] = target: Phenylethanolamine N-methyltransferase (Homo sapiens) (UniProt P11086); conditions: purified enzyme, MTase-Glo SAH luminescence; measured here: PNMT inhibition; at 40 µM; stronger effect = lower value
Summary of the method: as §1
% is set by controls: 0 for no effect and ±100 for the full control effect.

Compound | activity change, negative = inhibition [1] [%] | activity change, negative = inhibition [2] [%] | activity change, negative = inhibition [3] [%] | activity change, negative = inhibition [4] [%] | activity change, negative = inhibition [5] [%]
CC1CC(=O)C2=C(CCC3(O)C(O)c4c(O)cccc4C(=O)C23O)C1 (stereo not drawn) | -4.9 | -0.29 | 4.2 | -12.2 | -10.8
COC(=O)c1ncn2c1C(=O)N(CCc1cccs1)C(C)(C(=O)NC1CCCC1)C2 (stereo not drawn) | 0.593 | 4.23 | 1.03 | 0.666 | 2.22
Cn1c(=O)oc2cc(S(=O)(=O)NCCc3nc(-c4ccc(F)cc4)n[nH]3)ccc21 | 1.52 | 4.6 | -2.04 | -2.97 | -3.48
CCOc1ccc(N2C(=O)c3cc4occc4n3CC2(C)C(=O)NC2CCCCCC2)cc1 (stereo not drawn) | 1.15 | 0 | 2.96 | 5.43 | 0.605
Cc1ccc(CNC(=O)c2cc3n(n2)CC(C)(C(=O)NCc2ccccc2)N(C)C3=O)o1 (stereo not drawn) | 3.06 | 0.327 | 5.3 | 1.99 | 2.63
CCO[C@H]1CN(C(=O)C(C)(C)Oc2ccc3c(c2)CCC3)C[C@@H]1O | -7.9 | -8.17 | -3.35 | -8.2 | 0.664
CCCc1cc(CN(C)C(=O)c2ccc3c(c2)[nH]c(=O)n3C2CCC(O)CC2)[nH]n1 (stereo not drawn) | -1.14 | 0.673 | 2.24 | -2.22 | -3.97
CC1(C)Cc2nc(C(C)(C)C)ncc2C(NC(=O)CCCN2CCCC2=O)C1 (stereo not drawn) | -0.137 | -0.576 | 3.54 | -0.271 | -0.067
Cc1cc(C)cc(NC(=O)Cn2nc3n(CCC(C)C)c(=O)c4ccc(C(=O)NC(C)C)cc4n3c2=O)c1 | 4.96 | 4.27 | -0.742 | 2.06 | 3.42
Cc1noc2c(Nc3ccc(C(N)=O)cc3)cc(-c3ccsc3)nc12 | -4.05 | -3.69 | -1.51 | -11.2 | -5.04
OC1COC(OCC2OC(OCCc3ccccc3)C(O)C(O)C2O)C(O)C1O (stereo not drawn) | 0 | 6.19 | 8.53 | -5.42 | 2.92
CC1(C(=O)NC2CCCCCCC2)Cn2c(cc3sccc32)C(=O)N1C1CCCC1 (stereo not drawn) | 1.99 | 1.07 | 3.86 | 2.64 | -0.004
COc1ccccc1CNC(=O)c1ccc2c(=O)nc3c(-c4ccccc4)n[nH]n3c2c1 | -5.06 | 2.74 | 4.14 | 3.42 | -1.81
CCCCCNc1nc2c(-c3ccc(C)cc3)nnn2c2ccccc12 | -1.59 | 0.163 | 6.46 | -0.502 | 0.428
CSc1ccc(CNC(=O)Cn2ccc3cc(S(=O)(=O)N4CCC(C)CC4)ccc32)cc1 | 7.96 | 0.149 | 5.56 | 1.65 | 0.676
CC(=O)OC1C=C(C(=O)O)C2(CO)CCC(C)C(C)(CCc3ccoc3)C2C1 (stereo not drawn) | 0.305 | 7.12 | 9.15 | -9.68 | 6.02
CCOc1ccccc1NC(=O)N1CCn2cccc2C1C (stereo not drawn) | -15.9 | -0.204 | -15.6 | -23.8 | -14.9
CN1C(=O)c2cc(C(=O)NC3CCCc4ccccc43)nn2CC1(C)C(=O)NC1CCCCCC1 (stereo not drawn) | 5.45 | 0 | 5.64 | -1.55 | 3.56
Cc1ccc(CNC(=O)N2CCn3c(C)ccc3C2C(C)C)cc1 (stereo not drawn) | 5.51 | 0 | -2.93 | -6.09 | -3.33
COCC[C@]1(O)CCN(C(=O)Nc2ccc(F)c(C(F)(F)F)c2)C[C@H]1C | -0.796 | -6.48 | -2.34 | -3.69 | -3.87

Compound | activity change, negative = inhibition [1] [%] | activity change, negative = inhibition [2] [%] | activity change, negative = inhibition [3] [%] | activity change, negative = inhibition [4] [%] | activity change, negative = inhibition [5] [%]
C1CCC[C@H]2CCCN3CC[C@H](CCCCCC[C@@H]4CCCN5CC[C@H](CC1)O[C@H]45)O[C@H]23 |  | -4 |  | -8.18 | 3.74
CC(C)=CCn1c(-c2cc(C)oc2C)cn2cc(C(=O)N(C)CC(C)C)nc2c1=O | -12.2 | -0.59 | -3.91 | -14 | -4.8
CCc1cc2c(cc3n2CC(C(=O)NC2CCCCC2)(c2ccccc2)N(Cc2ccccc2)C3=O)s1 (stereo not drawn) | 1.41 | -1.38 | 5.33 | -4.73 | -3.82
O=C(C[C@@H]1O[C@H](CNC(=O)Nc2ccccc2)[C@@H](O)[C@H]1O)NC1CC1 | -1.17 | -1.2 | 0.236 | -5.29 | -3.03
COc1ccc(N(C)C(=O)c2c(C)oc3c2CN(Cc2ccc(F)cc2)CC3)cc1 | -2.72 | -5.6 | -0.998 | 1.1 | 0.48
Cc1ccc(C(=O)Cn2nc3n(CCC(C)C)c(=O)c4ccc(C(=O)NC(C)C)cc4n3c2=O)cc1 | 7.3 | 0 | 3.62 | 3.27 | 3.93
Cc1ccc(CCN2C(=O)CSc3c(c4ccccc4n3C)C2C(=O)NCc2ccc(F)cc2)cc1 (stereo not drawn) | -5.88 | 2.64 | 2.4 | -3.69 | 0.652
O=C(c1ccnnc1)N1CCC2(CCN(Cc3ccccn3)CC2)C(CO)C1 (stereo not drawn) | -7.01 | -7.54 | -4.23 | -10.3 | -11.1
Fc1ccc(-c2nc(C3CCNCC3)sc2-c2ccnc(NC3CC3)n2)cc1 | -1.48 | 10.1 | -4.46 | -44.4 | 1.17
Oc1ccccc1-c1cc(-c2ccccc2F)[nH]n1 | -0.217 | 7.1 | 8.08 | -8.99 | 4.73
COc1cc2ncnc(Nc3ccc(O)c(Br)c3)c2cc1OC | -24 | -3.34 | -25 | -22 | -19
CN1CC[C@H]2CN(C(=O)c3ccccc3-n3cccn3)C[C@@]2(C(=O)O)C1 | -7.77 | -7.68 | -2.91 | -10.5 | 1.87
COc1ccc(CCN2C(=O)c3cc4ccccc4n3CC2(C)C(=O)NCc2ccccc2)c(OC)c1 (stereo not drawn) | 5.73 | 3.97 | 9.55 | 10.1 | 1.92
Cc1nc(C)c(C(=O)NCCc2ncc(C)n2C2CC2)s1 | -4.32 | -3.61 | -4.8 | -6.14 | 0.731
O=C1NCCCCCN(Cc2cn[nH]c2-c2ccc(F)cc2)[C@H]2CCC[C@@H]12 | -12.9 | -5.15 | -7.72 | -16.6 | -10.4
CC1(C(=O)NC2CCCC2)Cn2c(cc3sccc32)C(=O)N1Cc1cccs1 (stereo not drawn) | -2.15 | -1.01 | -1.07 | -13.8 | -1.22
COc1ccc(NS(=O)(=O)c2cc3c(cc2C)n(C)c(=O)n3C)cc1 | 11.1 | 0 | 11.3 | 2.91 | 6.66
COc1cc(-c2cc(-c3cccc(O)c3)cnc2N)cc(OC)c1OC | -5.41 | 2.04 | -2.92 | -15.2 | 1.17
CCCn1c(=O)c2cc(F)ccc2n2c(SCc3ccccc3C)nnc12 | -21.4 | 0.109 | 4.72 | -2.75 | 2.36
O=C1c2cc3sccc3n2CC(C(=O)NC2CCCCCCC2)(c2ccccc2)N1Cc1ccccc1 (stereo not drawn) | -1.24 | 3.29 | -1.88 | -0.209 | -4.39

Compound | activity change, negative = inhibition [1] [%] | activity change, negative = inhibition [2] [%] | activity change, negative = inhibition [3] [%] | activity change, negative = inhibition [4] [%] | activity change, negative = inhibition [5] [%]
CCc1cc2c(cc3n2CC(C)(C(=O)NC2CCC(C)CC2)N(c2cc(C)ccc2C)C3=O)s1 (stereo not drawn) | 2.49 | 1.07 | 2.1 | 4.17 | 0.229
CCCn1c(=O)c2ccccc2n2c(=O)n(CC(=O)NC3CCCCC3)nc12 | 1 | 0 | 5.08 | -6.18 | 0.941
CN(C)Cc1nnc(C2CC(NC(=O)Cc3noc4ccccc34)C2)n1C (stereo not drawn) | -4.7 | -7.67 | -2.65 | -12.7 | 7.8
C[C@H]1/C=C/C=C/C=C/C=C/C=C/[C@@H](O)[C@H](C(=O)O)[C@H](O)C[C@H](O)CCC[C@H](O)C[C@H](O)C[C@H](O)[C@@H](C)C(=O)O[C@@H]1C | 0 | 7.69 | 12.6 | -4.59 | 5.71
Cc1ccc(CNC(=O)C2(C)Cn3nc(C(=O)NCCCN4CCCCC4)cc3C(=O)N2C)cc1 (stereo not drawn) | 6.93 | 0.748 | -18.9 | 4.97 | 5.22
COc1ncccc1-c1cc2c(nc1OC)nc(CCc1ccccc1)n2C | -21.5 | -6.53 | -6.77 | -27.6 | -11.8
COc1ccc(CNC(=O)C[C@@H]2C[C@H]3O[C@H](CNC4CCNCC4)[C@@H](O)[C@H]3O2)cc1 | -5.72 | -8.4 | -5.55 | -10 | -4.88
CC(CN1C(=O)c2cc3occc3n2CC1(C)C(=O)NC1CCCCCCC1)c1ccccc1 (stereo not drawn) | 0.752 | 0 | 3.12 | 1.23 | -15.1
Cc1cc(C)c(S(=O)(=O)NCCc2n[nH]c(Cc3ccc(F)cc3)n2)cc1C | 15.9 | 0 | 8.87 | -1.03 | 6.82
CN(C)Cc1ccc(-c2cnn3c(-c4cccc(NC(=O)c5cccc(C(F)(F)F)c5)c4)ccnc23)cc1 | 1.66 | 16.9 | -45.6 | -9.78 | 4.03
COc1cccc(-c2noc(CCCc3nc(C4CCOC4)no3)n2)c1 (stereo not drawn) | -4.91 | -10.1 | -1.02 | -17.3 | -3.89
CC1=C(C)C(=O)OC(C(C)C2CCC3C4C5OC5C5(O)CC(OC6OC(CO)C(OC7OC(C)C(O)C(O)C7O)C(O)C6O)CC(O)C5(C)C4CCC23C)C1 (stereo not drawn) | 0.497 | -3.08 | 5.6 | -15.2 | 4.21
CN1C(=O)c2cc(C(=O)NCc3cccs3)nn2CC1(C)C(=O)NCc1ccc(F)cc1 (stereo not drawn) | 3.97 | 4.88 | -1.07 | 2.64 | 0.777
COc1ccc(C2=NOC3(CCCN([S+](=O)([O-])c4cccc(C(F)(F)F)c4)C3)C2)cc1 (stereo not drawn) | -2.35 | -1.27 | 0.008 | -1.38 | -4.29
CC[C@@H]1C(=O)O[C@]23C=C[C@@H]4C(C(=O)OC)=CO[C@H](O[C@@H]12)[C@@H]43 | -6.32 | -8.76 | 1.68 | -18.3 | -11.2
O=C(Nc1ccc(=O)n2c1[C@@H]1C[C@@H](CN(C(=O)Nc3ccc(F)cc3)C1)C2)c1ccc2c(c1)OCO2 | -1.47 | -0.951 | 0.523 | -0.135 | 0.905
N=C(N)c1ccc(OCCCCCOc2ccc(C(=N)N)cc2)cc1 (tested in a mixture with another compound) | -9.66 | 5.57 | -92.3 | -11.2 | -2.38
CCn1c(=O)n(CC)c2cc(S(=O)(=O)N3CCN(c4ccccc4OC)CC3)ccc21 | 11.9 | 2.6 | 11.4 | 5.4 | 9.41
CCn1ccc(C(=O)N2CCC(C3CCN(C(C)=O)CC3)C2)n1 (stereo not drawn) | -2.89 | -3.72 | 0.874 | 0.172 | 1.03
